# The campaign covered roughly 310,000 compounds. About 2,200 (0.71%) showed an effect of 50% or more. Effects have a minus sign here. Some of the results follow.
# Molecular target: human ether-à-go-go-related gene (hERG) potassium channel (human, UniProt Q12809)
# Test: primary screen, population patch clamp on CHO cells stably expressing hERG
# Sequence of human ether-à-go-go-related gene (hERG) potassium channel (Q12809 whole entry, looked up): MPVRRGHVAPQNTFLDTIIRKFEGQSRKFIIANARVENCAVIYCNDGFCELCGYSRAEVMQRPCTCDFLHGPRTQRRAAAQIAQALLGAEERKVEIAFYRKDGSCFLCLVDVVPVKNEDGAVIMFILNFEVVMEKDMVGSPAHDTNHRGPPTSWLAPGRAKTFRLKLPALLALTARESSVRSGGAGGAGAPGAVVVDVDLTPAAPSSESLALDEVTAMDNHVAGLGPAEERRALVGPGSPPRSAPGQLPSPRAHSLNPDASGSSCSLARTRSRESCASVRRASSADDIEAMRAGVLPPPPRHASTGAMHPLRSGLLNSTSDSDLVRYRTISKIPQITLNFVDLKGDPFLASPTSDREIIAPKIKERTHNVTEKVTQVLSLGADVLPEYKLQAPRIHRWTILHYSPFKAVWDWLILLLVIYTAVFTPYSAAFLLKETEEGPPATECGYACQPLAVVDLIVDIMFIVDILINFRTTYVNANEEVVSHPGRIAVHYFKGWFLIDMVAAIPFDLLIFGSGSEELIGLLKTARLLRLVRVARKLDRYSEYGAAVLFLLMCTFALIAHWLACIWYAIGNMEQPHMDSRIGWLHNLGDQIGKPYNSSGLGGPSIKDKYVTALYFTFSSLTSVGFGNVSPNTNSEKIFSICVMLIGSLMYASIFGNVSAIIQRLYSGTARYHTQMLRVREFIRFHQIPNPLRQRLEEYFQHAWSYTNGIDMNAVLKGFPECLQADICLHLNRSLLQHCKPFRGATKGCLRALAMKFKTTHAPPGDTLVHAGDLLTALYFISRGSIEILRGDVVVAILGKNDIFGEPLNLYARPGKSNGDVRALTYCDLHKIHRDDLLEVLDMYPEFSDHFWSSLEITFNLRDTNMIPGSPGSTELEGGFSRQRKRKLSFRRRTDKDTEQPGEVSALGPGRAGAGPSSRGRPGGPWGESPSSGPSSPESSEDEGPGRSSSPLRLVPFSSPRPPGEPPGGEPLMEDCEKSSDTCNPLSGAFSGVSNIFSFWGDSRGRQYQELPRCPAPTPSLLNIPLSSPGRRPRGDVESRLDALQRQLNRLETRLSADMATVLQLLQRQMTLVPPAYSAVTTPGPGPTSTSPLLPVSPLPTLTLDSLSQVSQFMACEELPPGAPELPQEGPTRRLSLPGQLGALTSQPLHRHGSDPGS
row,SMILES,"hERG current change (%, negative = inhibition) at 1uM"
1,COc1ccc(COC(=O)CCNC(=O)c2ccc(Cl)cc2)cc1,-7.35%
2,COc1ccc(C(=O)c2c(N)sc3c2CCN(C)C3)cc1,5.51%
3,COc1ccc(CN2CCN(S(=O)(=O)c3ccccc3)CC2)c(OC)c1OC,14.9%
4,CN1N=C2c3ccccc3CCC2C1c1ccc(F)cc1 (centres unmarked),11.4%
5,Cn1c(=O)c2nc(-c3ccccc3)c(-c3ccccc3)nc2n(C)c1=O,3.26%
6,O=C(NC(=S)NCc1ccco1)c1ccccc1[N+](=O)[O-],12.6%
7,COc1ccc(N(C(=O)C(C)C)S(=O)(=O)c2cccs2)cc1,1.6%
8,CCOC(=O)C1(C)NC(c2cc(OC)c(OC)c(OC)c2)C2C(=O)N(CC)C(=O)C21 (centres unmarked),7.97%
9,COc1ccc(/C=C(/C#N)C(=O)Nc2ccc(O)cc2)cc1C(=O)O,9.58%
10,COc1nnc(-c2ccc(C)c(S(=O)(=O)NC(C)C)c2)c2ccccc12,-5.36%
11,CCOC(=O)N1CCc2c(sc(NC(=O)CN3CCOCC3)c2C(=O)Nc2ccccc2)C1,-31.9%
12,CC1Cc2c([nH]c3ccccc23)C(=O)N1 (centres unmarked),15.1%
13,O=C(COc1ccc(Cl)cc1)Nc1ccccc1Cl,9.01%
14,CC(=O)/C(=N/Nc1ccc(Br)cc1)Sc1cccc2cccnc12,1.12%
15,CCn1c(=O)cc(OCC(=O)Nc2cccnc2)c2ccccc21,7.88%
16,COc1ccc(N2CCN(C(=O)c3ccc(C)cc3Cl)CC2)cc1,-2.45%
17,CCC(C)(C)NC(=O)C(c1ccc(C)cc1)N(CC1CCCO1)C(=O)CCC(=O)Nc1ccccn1 (centres unmarked),17.8%
18,O=S(=O)(NC1CCCCC1Sc1ncccn1)c1ccc(Cl)cc1 (centres unmarked),4.13%
19,CCCOc1ccc(S(=O)(=O)n2cc(Br)c(=O)[nH]c2=O)cc1,-5.19%
20,Cc1ccc(C(=O)NCc2ccccn2)cc1S(=O)(=O)N1CCCCC1,18.4%
21,O=C(Nc1ccc(/C=C/c2nc3ccccc3o2)cc1)c1ccc(F)cc1,9.29%
22,COC(=O)c1c(NC(=O)COC(=O)[C@@H](NS(=O)(=O)c2ccc(C)cc2)C(C)C)sc2c1CCC2,15.1%
23,CSc1cccc(NC(=O)/C=C/c2ccco2)c1,11%

row,SMILES,"hERG current change (%, negative = inhibition) at 1uM"
1,COc1cc(OC)cc(C(=O)Nc2ccc(C(=O)c3ccncc3)cc2)c1,11.8%
2,COc1ccc(/C=N/n2c(SC)nnc(C(C)(C)C)c2=O)cc1OC,9.96%
3,CCCCC(=O)Nc1cccc(NC(=O)c2ccc(Br)cc2)c1,19.4%
4,O=C(C1CCN(S(=O)(=O)c2cccs2)CC1)N(c1ccccn1)C1CCCCC1,11.2%
5,CCC(=O)N(Cc1ccco1)Cc1cc2cc3c(cc2[nH]c1=O)OCO3,15.1%
6,CCN1C(=O)CSc2ccc(C(=O)NCc3ccco3)cc21,10.4%
7,CCn1c(SCC(=O)OC)nnc1C1CCCCC1,-2.08%
8,COc1ccc(OCC#CCN2CCNCC2)cc1.O=C(O)C(=O)O,17.8%
9,CC(=O)N[C@@H](CC(=O)O)C(=O)O,8.96%
10,COc1ccc(C(=O)C2CCCN(C(=O)c3cccs3)C2)cc1F (centres unmarked),5.97%
11,O=C(NCCC1CCCCN1S(=O)(=O)c1ccccc1)C(=O)NCc1ccc(F)cc1 (centres unmarked),-16.4%
12,O=C(NCCC1CCCCN1S(=O)(=O)c1cccs1)C(=O)Nc1ccccc1 (centres unmarked),12.7%
13,COC(=O)c1ccc(COC(=O)C(CCS(C)(=O)=O)N2C(=O)c3ccccc3C2=O)cc1 (centres unmarked),-2.75%
14,Cc1nc2ccccc2c2c1C(=O)NC2=O,10.4%
15,O=C(COc1ccc(Br)cc1)N/N=C1/SCC(=O)N1Cc1ccco1,-22.5%
16,Cc1ccc(NC(=O)C(=O)NCCN2CCN(S(=O)(=O)c3ccccc3)CC2)cc1C,13.8%
17,COc1ccccc1Nc1nc2cc(C)ccc2cc1C#N,12%
18,NC(=O)CCN1CCN(S(=O)(=O)/C=C/c2ccccc2)CC1,12.7%
19,O=C(COC(=O)c1cnc(Cl)c(Cl)c1)NCc1ccco1,2.55%
20,Cc1cc(C)c(S(=O)(=O)NCCCn2ccnc2)cc1C,9.48%
21,Cc1cc(OC(C)C(=O)NCc2cccnc2)c2c(C)cc(=O)oc2c1 (centres unmarked),9.3%
22,O=S(=O)(Cc1ccccc1)c1nc2ccccc2n1Cc1ccccn1,6.47%
23,C=C(NC(C)=O)c1c(F)cccc1F,20.4%

row,SMILES,"hERG current change (%, negative = inhibition) at 1uM"
1,NC(=S)Nc1ccc(Oc2ccc(NC(N)=S)cc2)cc1,12.4%
2,CCN(Cc1ccccc1)S(=O)(=O)c1ccc(C(=O)N2CCN(c3nc4ccccc4s3)CC2)cc1,8.29%
3,Cc1nc2cccc(C(=O)Oc3ccc([N+](=O)[O-])cc3)c2o1,4.59%
4,COc1ccc(/C(C)=N\Nc2nc(-c3ccc(Cl)cc3)cc(C(F)(F)F)n2)cc1OC,7.07%
5,CCOC(=O)C1=C(CNCc2ccccc2Cl)NC(=O)NC1c1cccc([N+](=O)[O-])c1 (centres unmarked),-4.17%
6,O=C(Nc1ccc(N2CCOCC2)nc1)c1ccc(Cl)cc1,-2.62%
7,CCN1CCN(c2oc(-c3ccc(OC)cc3)nc2C#N)CC1,-25.6%
8,Cc1cc(Cl)c2ccc(Cl)cc2n1,10.1%
9,COc1ccc2c(c1OC)C(=O)N(c1ccc(O)cc1)C2,11.2%
10,NC(=O)CC(NC(=O)c1ccc(Br)cc1)c1ccc(NCCc2ccc(F)cc2)c([N+](=O)[O-])c1 (centres unmarked),11%
11,CCOc1ccc(NC(=O)c2ccccc2-c2ccccc2C(=O)O)cc1,12.9%
12,O=C1CC(c2cccc([N+](=O)[O-])c2)c2ccc3ccccc3c2N1 (centres unmarked),1.72%
13,Cc1ccn(CCC(=O)N2c3ccccc3CC2C)n1 (centres unmarked),16%
14,Cc1ccc(-n2c(=O)[nH]cc(C(=O)N3CCc4ccccc43)c2=O)cc1,7.77%
15,COc1ccc(CNC(=O)c2cc(-c3ccccc3O)n[nH]2)cc1,8.65%
16,COc1ccc(-n2c(SCC(=O)OC(C)C)nnc2-c2ccccn2)cc1,-16%
17,COc1cc(NC(=O)c2cc(S(=O)(=O)N3CCc4ccccc43)cn2C)cc(OC)c1OC,13.6%
18,O=[N+]([O-])C1=CC=C2C(=NC3(CCCCC3)N2O)C1=NC1CCCCC1,25%
19,CCCS(=O)(=O)N1CCN(C(=O)c2cc(OC)cc(OC)c2)CC1,10.7%
20,COc1ccc(C(=O)N/C(=C/c2cccnc2)C(=O)N2CCCCCC2)cc1OC,10.4%
21,COc1cc(NC(=O)CSc2nnnn2Cc2ccccc2)cc(OC)c1,7.74%
22,CC(C)OP(=O)(c1ccc(N(C)C)cc1)C(O)c1ccc(N(C)C)cc1 (centres unmarked),11.4%
23,O=C(c1ccco1)N1CCN=C1SCc1cccc(F)c1,1.43%

row,SMILES,"hERG current change (%, negative = inhibition) at 1uM"
1,CC(=O)NNC(=O)c1sc(=S)n(C)c1C,8.85%
2,CC(=O)N1c2ccc(N=Cc3cc(Br)cc(Br)c3O)cc2CC1C (centres unmarked),10.5%
3,CCSc1nc(-c2ccccc2)c(-c2ccccc2)n1CC(O)CO (centres unmarked),4.81%
4,Cc1nc(-c2cccc(NC(=O)C3CCCCC3)c2)cs1,8.18%
5,Cn1c(/C(C#N)=C/c2ccc(-c3ccc(S(N)(=O)=O)cc3)o2)nc2ccccc21,-7.29%
6,O=C(NCc1ccccn1)c1ccc(CNS(=O)(=O)c2ccc(F)cc2)cc1,17.5%
7,COc1ccc(C(OC(=O)c2cccs2)C(=O)NCC2CCCO2)cc1 (centres unmarked),-0.195%
8,COc1cc(C(=O)NNC(=O)c2ccccc2OCc2c(C)noc2C)cc(OC)c1OC,1.66%
9,O=C(Cc1ccc(Cl)cc1Cl)Nc1cccc(S(=O)(=O)Nc2ccccc2F)c1,7.28%
10,COC(=O)c1ccc(Cn2nc(C)c(Br)c2C)cc1,10.5%
11,C=CCC1(C)C(=O)N(c2ccccc2)c2ccccc21 (centres unmarked),18.2%
12,CCN(CC(=O)Nc1cccc(C#N)c1)CC(=O)Nc1cccc(OC)c1,-2.99%
13,CCOC(=O)/C=c1\s/c(=C\c2sccc2C)c(=O)n1CC(=O)NCc1ccc(C)cc1,16.3%
14,Cc1ccc(N2CC(C(=O)Nc3ccc(N(C)C)cc3)CC2=O)cc1C (centres unmarked),8.76%
15,Cc1ccc(NC(=O)Cc2ccccc2F)cc1S(=O)(=O)N1CCCCCC1,2.69%
16,COc1ccc(OC)c(/C=C/C(=O)Nc2cccc(S(=O)(=O)NC3=NCCCCC3)c2)c1,5.24%
17,CCC(=O)N/N=C/c1ccc(-c2ccc([N+](=O)[O-])cc2)o1,15.9%
18,COc1ccc2oc(C)c(C(=O)c3ccccc3)c2c1,11%
19,CCOC(=O)/C=C1\NC(C)(C)Cc2cc(OC)c(OC)cc21,8.67%
20,COCCn1c(SC(C)C(=O)Nc2ccc(Cl)cn2)nnc1-c1ccncc1 (centres unmarked),-2.1%

# Reference: article PMC4336329 (PLoS ONE, 2015)
